In US20260116922A1 (UNIVERSITAET WIEN, priority 2021, published 2026):
Part of at least one peptide drawing is inferred or uncertain, most often the ends. *1 amine or outer side, *2 acyl side, *3 side chain or, on linkers, in order; H or OH if unused. Where a SMILES comes first, the peptide text is derived from it. Bridges are numbered along the chain shown (N, C = ends). [ ]: non-standard residue; d: D form. The star is where a group is joined. αMeY = C[C@](N)(Cc1ccc(O)cc1)C(=O)O; Gly(cPent) = N[C@H](C(=O)O)C1CCCC1; αMeL = CC(C)C[C@](C)(N)C(=O)O; αMeV = CC(C)[C@](C)(N)C(=O)O; Thz = O=C(O)[C@@H]1CSCN1; X1 = O=C(CCC[*:2])[*:1]; Dap = NC[C@H](N)C(=O)O; Piv = CC(C)(C)C(=O)*

Target: T1, Human OTR (Homo sapiens, UniProt P30559)
T1 construct: expressed in transfected cells; host or cells: HEK293 (stably transfected, G418 selection)
T1 sequence (P30559 1-389): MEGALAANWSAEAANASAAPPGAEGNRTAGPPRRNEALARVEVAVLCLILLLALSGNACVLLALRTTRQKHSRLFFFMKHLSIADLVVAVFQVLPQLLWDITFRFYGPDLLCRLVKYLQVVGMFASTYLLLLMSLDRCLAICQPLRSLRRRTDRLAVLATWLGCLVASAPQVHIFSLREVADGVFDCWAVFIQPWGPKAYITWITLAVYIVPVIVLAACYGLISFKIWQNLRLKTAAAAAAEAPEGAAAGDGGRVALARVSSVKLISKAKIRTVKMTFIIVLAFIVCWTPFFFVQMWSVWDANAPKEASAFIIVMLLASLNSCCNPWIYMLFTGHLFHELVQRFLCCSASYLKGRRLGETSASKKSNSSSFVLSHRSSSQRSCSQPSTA
Assay: IP-1 accumulation in HEK293 cells stably expressing hOTR-GFP
Type: cell-based
Conditions: 1 h stimulation at 37° C., normalized to maximum OT response

| Compound | EC50 |
| --- | --- |
| CC[C@H](C)[C@@H]1NC(=O)[C@H](Cc2ccc(O)cc2)NC(=O)[C@@H](N)CSSC[C@@H](C(=O)N2CCC[C@H]2C(=O)N[C@@H](CCCCNC(C)=O)C(=O)NCC(N)=O)NC(=O)[C@H](CC(N)=O)NC(=O)[C@H](CCC(N)=O)NC1=O [Compound 1] | < 10 nM |
| CC[C@H](C)[C@@H]1NC(=O)[C@H](Cc2ccc(O)cc2)NC(=O)[C@@H](N)CSSC[C@@H](C(=O)N2CCC[C@H]2C(=O)N[C@@H](CNC(C)=O)C(=O)NCC(N)=O)NC(=O)[C@H](CC(N)=O)NC(=O)[C@H](CCC(N)=O)NC1=O [Compound 2] | < 10 nM |
| CC[C@H](C)[C@@H]1NC(=O)[C@H](Cc2ccc(O)cc2)NC(=O)[C@@H](N)CSSC[C@@H](C(=O)N2CCC[C@H]2C(=O)N[C@@](C)(CC(C)C)C(=O)NCC(N)=O)NC(=O)[C@H](CC(N)=O)NC(=O)[C@H](CCC(N)=O)NC1=O [Compound 3] | < 10 nM |
| CC[C@H](C)[C@@H]1NC(=O)[C@H](Cc2ccc(OC)cc2)NC(=O)CCCSC[C@@H](C(=O)N2CCC[C@H]2C(=O)N[C@@H](CCCCNC(C)=O)C(=O)NCC(N)=O)NC(=O)[C@H](CC(N)=O)NC(=O)[C@H](CCC(N)=O)NC1=O [Compound 5] (Y(Me)IQNCPK(Ac)G-NH2; linker N-5 via X1) | < 10 nM |
| CC[C@H](C)[C@@H]1NC(=O)[C@H](Cc2ccc(OC)cc2)NC(=O)CCCSC[C@@H](C(=O)N2CCC[C@H]2C(=O)N[C@@H](CNC(C)=O)C(=O)NCC(N)=O)NC(=O)[C@H](CC(N)=O)NC(=O)[C@H](CCC(N)=O)NC1=O [Compound 6] (Y(Me)IQNCP[Dap](Ac)G-NH2; linker N-5 via X1) | > 500 nM |
| CC[C@H](C)[C@@H]1NC(=O)[C@H](Cc2ccc(OC)cc2)NC(=O)CCCSC[C@@H](C(=O)N2CCC[C@H]2C(=O)N[C@@](C)(CC(C)C)C(=O)NCC(N)=O)NC(=O)[C@H](CC(N)=O)NC(=O)[C@H](CCC(N)=O)NC1=O [Compound 7] (Y(Me)IQNCP[αMeL]G-NH2; linker N-5 via X1) | 10 to 500 nM |
| CC[C@H](C)[C@@H]1NC(=O)[C@](C)(Cc2ccc(O)cc2)NC(=O)CCCSC[C@@H](C(=O)N2CCC[C@H]2C(=O)N[C@@H](CNC(C)=O)C(=O)NCC(N)=O)NC(=O)[C@H](CC(N)=O)NC(=O)[C@H](CCC(N)=O)NC1=O [Compound 9] ([αMeY]IQNCP[Dap](Ac)G-NH2; linker N-5 via X1) | > 500 nM |
| CC[C@H](C)[C@@H]1NC(=O)[C@](C)(Cc2ccccc2)NC(=O)CCCSC[C@@H](C(=O)N2CCC[C@H]2C(=O)N[C@@H](CNC(C)=O)C(=O)NCC(N)=O)NC(=O)[C@H](CC(N)=O)NC(=O)[C@H](CCC(N)=O)NC1=O [Compound 10] | > 500 nM |
| CC[C@H](C)[C@@H]1NC(=O)[C@H](Cc2ccc(C)cc2)NC(=O)CCCSC[C@@H](C(=O)N2CCC[C@H]2C(=O)N[C@@H](CNC(C)=O)C(=O)NCC(N)=O)NC(=O)[C@H](CC(N)=O)NC(=O)[C@H](CCC(N)=O)NC1=O [Compound 11] | 10 to 500 nM |
| CC[C@H](C)[C@@H]1NC(=O)[C@H](Cc2ccc(C(F)(F)F)cc2)NC(=O)CCCSC[C@@H](C(=O)N2CCC[C@H]2C(=O)N[C@@H](CNC(C)=O)C(=O)NCC(N)=O)NC(=O)[C@H](CC(N)=O)NC(=O)[C@H](CCC(N)=O)NC1=O [Compound 12] | > 500 nM |
| CC[C@H](C)[C@@H]1NC(=O)[C@H](Cc2ccc(OC)cc2)NC(=O)CCCSC[C@@H](C(=O)N2CCC[C@H]2C(=O)N[C@@H](CNC(=O)C(C)(C)C)C(=O)NCC(N)=O)NC(=O)[C@H](CC(N)=O)NC(=O)[C@H](CCC(N)=O)NC1=O [Compound 13] (Y(Me)IQNCP[Dap](Piv)G-NH2; linker N-5 via X1) | > 500 nM |
| COc1ccc(C[C@@H]2NC(=O)CCCSC[C@@H](C(=O)N3CCC[C@H]3C(=O)N[C@@H](CNC(C)=O)C(=O)NCC(N)=O)NC(=O)[C@H](CC(N)=O)NC(=O)[C@H](CCC(N)=O)NC(=O)[C@H](C3CCCC3)NC2=O)cc1 [Compound 14] (Y(Me)[Gly(cPent)]QNCP[Dap](Ac)G-NH2; linker N-5 via X1) | > 500 nM |
| CC(=O)NC[C@H](NC(=O)[C@@H]1CCCN1C(=O)[C@@H]1CSCCCC(=O)N[C@@H](Cc2ccc(O)cc2)C(=O)N[C@@](C)(C(C)C)C(=O)N[C@@H](CCC(N)=O)C(=O)N[C@@H](CC(N)=O)C(=O)N1)C(=O)NCC(N)=O [Compound 15] (Y[αMeV]QNCP[Dap](Ac)G-NH2; linker N-5 via X1) | > 500 nM |
| CC[C@H](C)[C@@H]1NC(=O)[C@](C)(Cc2ccc(O)cc2)NC(=O)CCCSC[C@@H](C(=O)N2CCC[C@H]2C(=O)N[C@@H](CCCCNC(C)=O)C(=O)NCC(N)=O)NC(=O)[C@H](CC(N)=O)NC(=O)[C@H](CCC(N)=O)NC1=O [Compound 16] ([αMeY]IQNCPK(Ac)G-NH2; linker N-5 via X1) | 10 to 500 nM |
| CC[C@H](C)[C@@H]1NC(=O)[C@](C)(Cc2ccc(O)cc2)NC(=O)CCCSC[C@@H](C(=O)N2CSC[C@H]2C(=O)N[C@@H](CCCCNC(C)=O)C(=O)NCC(N)=O)NC(=O)[C@H](CC(N)=O)NC(=O)[C@H](CCC(N)=O)NC1=O [Compound 17] ([αMeY]IQNC[Thz]K(Ac)G-NH2; linker N-5 via X1) | < 10 nM |
| CC(=O)NCCCC[C@H](NC(=O)[C@@H]1CSCN1C(=O)[C@@H]1CSCCCC(=O)N[C@@](C)(Cc2ccc(O)cc2)C(=O)N[C@@H](C2CCCC2)C(=O)N[C@@H](CCC(N)=O)C(=O)N[C@@H](CC(N)=O)C(=O)N1)C(=O)NCC(N)=O [Compound 18] ([αMeY][Gly(cPent)]QNC[Thz]K(Ac)G-NH2; linker N-5 via X1) | < 10 nM |
| CC(=O)NCCCC[C@H](NC(=O)[C@@H]1CCCN1C(=O)[C@@H]1CSCCCC(=O)N[C@@H](Cc2ccc(O)cc2)C(=O)N[C@@](C)(C(C)C)C(=O)N[C@@H](CCC(N)=O)C(=O)N[C@@H](CC(N)=O)C(=O)N1)C(=O)NCC(N)=O [Compound 19] (Y[αMeV]QNCPK(Ac)G-NH2; linker N-5 via X1) | 10 to 500 nM |
| CC(=O)NCCCC[C@H](NC(=O)[C@@H]1CSCN1C(=O)[C@@H]1CSCCCC(=O)N[C@@H](Cc2ccc(O)cc2)C(=O)N[C@@](C)(C(C)C)C(=O)N[C@@H](CCC(N)=O)C(=O)N[C@@H](CC(N)=O)C(=O)N1)C(=O)NCC(N)=O [Compound 20] (Y[αMeV]QNC[Thz]K(Ac)G-NH2; linker N-5 via X1) | 10 to 500 nM |
| COc1ccc(C[C@@H]2NC(=O)CCCSC[C@@H](C(=O)N3CCC[C@H]3C(=O)N[C@@H](CCCCNC(C)=O)C(=O)NCC(N)=O)NC(=O)[C@H](CC(N)=O)NC(=O)[C@H](CCC(N)=O)NC(=O)[C@H](C3CCCC3)NC2=O)cc1 [Compound 21] (Y(Me)[Gly(cPent)]QNCPK(Ac)G-NH2; linker N-5 via X1) | < 10 nM |
| CC[C@H](C)[C@@H]1NC(=O)[C@H](Cc2ccc(OC)cc2)NC(=O)CCCSC[C@@H](C(=O)N2CSC[C@H]2C(=O)N[C@@H](CCCCNC(C)=O)C(=O)NCC(N)=O)NC(=O)[C@H](CC(N)=O)NC(=O)[C@H](CCC(N)=O)NC1=O [Compound 22] (Y(Me)IQNC[Thz]K(Ac)G-NH2; linker N-5 via X1) | < 10 nM |
| COc1ccc(C[C@@H]2NC(=O)CCCSC[C@@H](C(=O)N3CSC[C@H]3C(=O)N[C@@H](CCCCNC(C)=O)C(=O)NCC(N)=O)NC(=O)[C@H](CC(N)=O)NC(=O)[C@H](CCC(N)=O)NC(=O)[C@H](C3CCCC3)NC2=O)cc1 [Compound 23] (Y(Me)[Gly(cPent)]QNC[Thz]K(Ac)G-NH2; linker N-5 via X1) | < 10 nM |
